# Screen size: about 310,000 compounds; about 2,200 (0.71%) showed an effect of 50% or more. Effects have a minus sign here. The list shows a part of the results.
# Target: human ether-à-go-go-related gene (hERG) potassium channel (human, UniProt Q12809)
# Experiment: primary screen, population patch clamp on CHO cells stably expressing hERG
# human ether-à-go-go-related gene (hERG) potassium channel, sequence (Q12809 whole entry, looked up): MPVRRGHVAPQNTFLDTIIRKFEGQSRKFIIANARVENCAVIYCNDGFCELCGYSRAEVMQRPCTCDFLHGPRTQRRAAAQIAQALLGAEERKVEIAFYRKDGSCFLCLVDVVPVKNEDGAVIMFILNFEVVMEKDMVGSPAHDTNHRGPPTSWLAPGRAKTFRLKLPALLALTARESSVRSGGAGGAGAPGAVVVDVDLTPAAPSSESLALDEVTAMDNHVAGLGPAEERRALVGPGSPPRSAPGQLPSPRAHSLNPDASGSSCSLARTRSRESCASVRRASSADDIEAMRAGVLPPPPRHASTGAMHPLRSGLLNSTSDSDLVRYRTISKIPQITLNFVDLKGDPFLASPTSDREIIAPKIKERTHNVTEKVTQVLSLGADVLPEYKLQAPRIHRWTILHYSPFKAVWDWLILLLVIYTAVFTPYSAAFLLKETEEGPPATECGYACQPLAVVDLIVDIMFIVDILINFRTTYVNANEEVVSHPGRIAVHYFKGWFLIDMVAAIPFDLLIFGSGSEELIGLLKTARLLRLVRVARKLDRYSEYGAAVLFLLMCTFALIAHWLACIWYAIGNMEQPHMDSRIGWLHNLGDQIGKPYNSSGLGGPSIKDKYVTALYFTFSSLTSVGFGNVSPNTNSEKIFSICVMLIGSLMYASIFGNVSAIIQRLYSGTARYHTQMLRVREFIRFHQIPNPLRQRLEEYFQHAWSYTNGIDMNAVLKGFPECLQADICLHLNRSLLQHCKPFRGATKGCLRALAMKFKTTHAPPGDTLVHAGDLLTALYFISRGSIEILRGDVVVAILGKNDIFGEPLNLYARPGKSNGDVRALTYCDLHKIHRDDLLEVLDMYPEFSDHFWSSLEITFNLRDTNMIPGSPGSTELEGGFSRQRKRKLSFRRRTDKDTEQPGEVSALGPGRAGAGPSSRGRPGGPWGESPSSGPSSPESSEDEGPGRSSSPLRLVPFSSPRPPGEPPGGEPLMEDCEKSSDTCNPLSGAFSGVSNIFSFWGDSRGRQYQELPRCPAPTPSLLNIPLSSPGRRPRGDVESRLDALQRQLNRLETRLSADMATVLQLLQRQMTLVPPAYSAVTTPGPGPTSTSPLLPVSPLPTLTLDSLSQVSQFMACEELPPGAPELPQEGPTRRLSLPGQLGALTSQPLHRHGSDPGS
row,SMILES,"hERG current change (%, negative = inhibition) at 1uM [%]"
1,C[C@@]12CCC=C[C@H]1[C@H](c1ccc(F)c(/C=C/c3ccccc3)c1)N(Cc1ccccc1)C2=O,7.38
2,COc1ccc(-c2csc3ncn(CC(=O)N4CCOCC4)c(=O)c23)cc1,5.14
3,FC(F)(F)c1cc(-c2cccs2)nc(-n2cc(Br)cn2)n1,-2.22
4,CCCCCC(=O)c1c(C)[nH]c(C(=O)OCC)c1C,11.6
5,NS(=O)(=O)c1ccc(NC(=S)NC(=O)c2ccc3c(c2)OCO3)cc1,20.9
6,O=C(COc1ccccc1-c1ccccc1)NCc1cccc(Cl)c1,9.39
7,CC(OC(=O)c1ccc2c(=O)n3c(nc2c1)CCCCC3)C(N)=O (stereo not shown),16.1
8,CCOC(=O)N1CCC(NC(=O)c2ccc3c(c2)N(C)CCS3)CC1,-0.639
9,Cc1onc(-c2c(F)cccc2Cl)c1C(=O)N1C=CC(C(F)(F)F)=NCC1,12.6
10,Nc1nnc(SCC(=O)Nc2ccc(N3CCOCC3)c(Cl)c2)s1,4.97
11,CCNC(=S)N1CCN(S(=O)(=O)c2ccc(C)c(C)c2)CC1,2.8
12,O=C(NCc1ccc2c(c1)OCO2)C1CCC(CNS(=O)(=O)c2cccc3nsnc23)CC1 (stereo not shown),8.69
13,CC(=O)N1CCc2cc(Br)cc(S(=O)(=O)NCCN3CCCCC3C)c21 (stereo not shown),3.07
14,COc1ccc(-n2c(SCC(=O)NCc3cccs3)nc3[nH]ncc3c2=O)cc1,-7.44
15,Cn1c(Cn2cnc3ccccc32)nnc1SCc1ccccc1,0.708
16,O=C(O)CNC(=O)/C(=C\c1ccc2c(c1)OCO2)NC(=O)c1ccc(Br)cc1,7.12
17,Cc1ccc(S(=O)(=O)N2CCC(C(=O)N[C@@H](C)C(=O)NC3CCCCC3)CC2)cc1,8.93
18,COc1ccc(C(=S)N2CCOCC2)cc1OC(=O)c1ccccc1Cl,17.4
19,CC(=O)c1cccc(N(C(=O)c2ccco2)C(C(=O)NC2CCCC2)c2ccncc2)c1 (stereo not shown),2.4
20,O=C(c1ccccc1)c1cn(CC(=O)N2CCOCC2)c2ccccc12,7.17
21,Cc1cccc(-n2c(C)nc3ccccc3c2=O)n1,-0.868
22,CC(C)CC(=O)N(Cc1ccc(F)cc1)C1CCS(=O)(=O)C1 (stereo not shown),15.7
23,CC(=O)c1ccc(N2Cc3ccccc3C2)cc1,8.02

row,SMILES,"hERG current change (%, negative = inhibition) at 1uM [%]"
1,Cn1c(=O)cc(SCC(=O)Nc2ccc3c(c2)OCO3)c2ccccc21,14.7
2,O=C1CCC(=O)N1c1ccc(CSc2nc3ccccc3[nH]2)cc1,5.47
3,COc1ccc(C(=O)NNC2=CC(=O)CC(C)(C)C2)cc1OC,8.4
4,O=C(O)CC1SC(=O)NC1=O (stereo not shown),8.82
5,CCOC(=O)C(C)C1(O)c2ccccc2-c2ncccc21 (stereo not shown),-1.12
6,Cc1ccc(SCCOCCN2CCOCC2)cc1.Cl,16
7,CC(Oc1ccccc1F)C(=O)Nc1ccc2ccccc2c1 (stereo not shown),6.35
8,NNC(=O)C1CC(O)CN1S(=O)(=O)c1ccc(Cl)cc1 (stereo not shown),6.56
9,Cc1ccc(-n2nc3ccc(N)cc3n2)cc1,2.75
10,Cc1ccc(C)c(N2CCN(C(=O)C3CCCN(S(=O)(=O)c4c(C)[nH]c(=O)[nH]c4=O)C3)CC2)c1 (stereo not shown),9.86
11,Cc1ccc(-c2csc(CC(N)=O)n2)cc1,5.33
12,COC(=O)CC1C(=O)NCCN1C(=O)c1ccc(Cl)cc1 (stereo not shown),8.55
13,CSc1nnc(C)c(/C=C/Nc2ccc(F)cc2F)n1,7.44
14,O=C(NCc1ccccn1)c1ccc(Cl)cc1Cl,2.43
15,Cc1nn(-c2ccccc2)c(C)c1/C=N/NC(=O)c1cc(C23CC4CC(CC(C4)C2)C3)[nH]n1,9.06
16,CCCCn1c(N)c(N(CCOC)C(=O)COC(=O)c2ccccc2OCC)c(=O)[nH]c1=O,12.2
17,COc1ccc(OC)c(NC(=O)c2cccc(S(=O)(=O)N3CCN(C(C)=O)CC3)c2)c1,9.14
18,COC(=O)c1c(NC(=O)C2CCCCC2)sc2c1CC(C)(C)NC2(C)C,7.9
19,Cc1cccnc1NC(=O)c1sc2ccccc2c1Cl,9.67
20,Cc1ccc(-c2[nH]ncc2CN2CCN(C(=O)c3cccs3)CC2)cc1C,-4.17
21,CN(C)c1nc(N)nc(CSc2n[nH]c(-c3ccccc3)n2)n1,6.32
22,Cc1ccc(CNS(=O)(=O)c2ccc(C(C)(C)C)cc2)n1C,5.26
23,O=C1[C@H]2[C@@H](c3ccc(F)cc3)N3C(=O)N(c4cccc(F)c4)C(=O)[C@@]3(Cc3ccccc3)[C@H]2C(=O)N1C1CCCCC1,13.1

# Source: paper PMC4336329 (PLoS ONE, 2015)
